In PubChem BioAssay AID493208 (National Center for Advancing Translational Sciences (NCATS), 2011):
About 340 (0.77%) of roughly 44,000 compounds were called active. Another 5% or so got no clear call; they are omitted. Calls follow the shape of the dose curve; as a rule, active = well fitted inhibition curve with a large enough effect; inconclusive = small, poorly fitted or top-dose-only effect; inactive = flat fitted curve, though single readings scatter. This is one part of the list.

Test: Acumen qHTS Assay for Inhibitors of the mTORC1 Signaling Pathway in MEF (Tsc2-/-, p53-/-) Cells: Sytravon; also: nearly all actives have a fitted effect of over 50% in size;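 as to activity change, negative = inhibition: plate controls were DMSO for no effect and rapamycin for full effect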
Settings: phospho-rpS6 immunofluorescence/PI, 24 h; series mostly up to 38.3 µM; activity change, negative = inhibition: at the top concentration
How it was run: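 Tsc2-/-, p53-/- mouse embryonic fibroblasts (empty-vector line) exposed to compound 24 hrs at 37 C, fixed, immunostained for phospho-rpS6 and counterstained with propidium iodide. Acumen laser scanning gives % positive cells from Alexa 488/PI ratio, thresholded using 7.5 nM rapamycin; PI count gives viability.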
Potency is read from the fitted curve at half-maximal effect.

SMILES	activity change, negative = inhibition	Potency
COc1ccccc1-c1nnc(SCC(=O)Nc2ccccc2F)o1	inactive: -2.44%	–
Cc1ccc(Cl)cc1NC(=O)CCC(=O)N1CC(C)Sc2ccccc21 (stereo not drawn)	inactive: 0%	–
CCC1CN(C(=O)N2CCC(C(=O)N3CCN(c4cccc(C)c4C)CC3)CC2)c2ccccc2O1 (stereo not drawn)	inactive: -15%	–
O=C(NCCc1ccc(Cl)cc1)C1CCN(c2ncnc3c2nc2n3CCCCC2)CC1	inactive: -9.08%	–
Cc1ccc(-n2c(=O)c3c4c(sc3n(CC(=O)c3ccc(Cl)cc3)c2=O)CCC4)cc1C	inactive: -1.31%	–
CC(=O)N1c2ccc(S(=O)(=O)NCC3CCC(C(=O)Nc4ccc(C)cc4)CC3)cc2CC1C (stereo not drawn)	inactive: -4.36%	–
CN(Cc1ccco1)C(=O)c1ccc2c(c1)N(Cc1ccccc1F)C(=O)c1ccccc1S2	inactive: -9.13%	–
CCc1ccc(NC(=O)CN2CCCN(Cc3cccc(Cl)c3)S2(=O)=O)cc1	inactive: -3%	–
COC(=O)c1cc2sc(C)cc2n1CC(=O)Nc1ccc(C)c(C)c1	inactive: -8.32%	–
COc1ccc2c(c1)c1c(c(=O)n(-c3ccc(F)c(Cl)c3)c(=O)n1CC(=O)N1CCCC1)n2C	inactive: -7.57%	–
Cc1c2cnn(-c3ccccc3)c(=O)c2c(C)n1CC(=O)NCCc1ccc(Cl)cc1	inactive: 0.21%	–
CCOc1ccc(NC(=O)c2cc(S(=O)(=O)N3CCCCCC3)cn2C)cc1	inactive: 1.37%	–
COc1cc(CNC(=O)c2ccc3c(c2)N(C)C(=O)C2CCCCN32)cc(OC)c1OC (stereo not drawn)	inactive: -1.02%	–
CC(=O)N1CCc2c(sc3c2c(=O)n(-c2ccccc2)c(=O)n3CC(=O)Nc2ccccc2)C1	inactive: 1.37%	–
O=C(O)c1ccc(CNCc2ccc(Cl)cc2)s1	inactive: -2.5%	–
CC(C)CN(C(=O)c1cccc(S(=O)(=O)N2CCCCC2)c1)C1CCS(=O)(=O)C1 (stereo not drawn)	inactive: -9.74%	–
Cc1ccc2nc(Nc3cccc(Cl)c3C)c(-n3nc(C)cc3C)nc2c1	inactive: 4.48%	–
Cc1c(-c2nc(-c3ccc4c(c3)OCO4)no2)nnn1-c1ccc(Br)cc1F	inactive: 4.04%	–
Cc1ccccc1NC(=O)Cn1c(SCC(=O)Nc2ccc(F)cc2)nc2ccccc21	inactive: 0%	–
CCOC(=O)c1ccc(NC(=O)Cn2c(=O)n(-c3ccc(C)cc3)c(=O)c3c2cnn3C)cc1	inactive: 2.49%	–
O=C(COc1ccccc1Cl)OCc1cc(=O)n2nc(-c3cccs3)sc2n1	inactive: -0.899%	–
Cc1ccc(CNC(=O)Cc2c(C)c3cc4c(C)coc4cc3oc2=O)cc1	inactive: -17.4%	–
CCOC(=O)c1c(NC(=O)c2nc(SCC)ncc2Cl)sc(C(C)=O)c1C	inactive: -3.71%	–
CCOC(=O)c1ccc(N2CCN(c3cccc(OC)c3)CC2)c(NC(=O)Nc2ccc(OCC)cc2)c1	inactive: -2.94%	–

SMILES	activity change, negative = inhibition	Potency
CCC(Cn1nnc2ccccc2c1=O)NC(=O)Nc1cccc(C)c1C (stereo not drawn)	inactive: -1.18%	–
COc1ccc(C(=O)OCc2cc(=O)n3nc(-c4cccs4)sc3n2)cc1	inactive: -1.11%	–
CCC(=O)N1CCc2cc(Br)cc(S(=O)(=O)CCC(=O)N3CCN(c4cccc(C(F)(F)F)c4)CC3)c21	inactive: 2.46%	–
Cc1ccc(NC(=O)C2CCCN(c3nnc(C)c4c(C)n(-c5ccccc5)nc34)C2)c(Cl)c1 (stereo not drawn)	inactive: -0.0537%	–
O=[N+]([O-])c1cc(-c2nc(-c3ccccc3)no2)ccc1N1CCCCC1	inactive: 0.435%	–
CC1=C(C(=O)Nc2ccccc2)C(c2ccncc2)n2nc(SCc3ccccc3Cl)nc2N1 (stereo not drawn)	inactive: -1.64%	–
O=C(Cn1c(=O)n(Cc2ccco2)c(=O)c2ccccc21)Nc1ccc(Cl)cc1Cl	inactive: -1.83%	–
O=C(c1ccc(Cl)cc1)N1CCC(c2ccncc2)CC1	inactive: -2.15%	–
CCN(CC)S(=O)(=O)c1ccc2nc(NC(=O)c3cccnc3)sc2c1	inactive: 1.02%	–
COc1cc(-c2noc(-c3ccc(N4CCN(C)CC4)c([N+](=O)[O-])c3)n2)cc(OC)c1OC	inactive: 0.858%	–
O=C(Cn1c(=O)ccc2cc(S(=O)(=O)N3CCCC3)ccc21)NCc1ccc(Cl)cc1	inactive: -0.48%	–
CCOC(=O)c1cc(S(=O)(=O)NCc2ccccc2)[nH]n1	inactive: -1.37%	–
CCC(CO)NC(=O)C(=O)Nc1c2c(nn1-c1ccc(F)cc1)CSC2 (stereo not drawn)	inactive: -12.8%	–
COc1ccccc1CNS(=O)(=O)c1c(C)nc2scc(C)n2c1=O	inactive: 0.389%	–
Cc1cc(Nc2ccc(C)c(Cl)c2)n2nc(Cc3ccccc3)nc2n1	inactive: 1.85%	–
CCOc1ccc(NC(=O)c2c(Nc3ccc(OC)cc3OC)sc(C(=O)c3ccc(Cl)cc3)c2N)cc1	inactive: -2.59%	–
COCCn1c(=O)[nH]c2cc(C(=O)NCc3ccccc3Cl)ccc2c1=O	inactive: -3.66%	–
CCOc1ccc(NC(=O)CSc2nc(-c3ccc(OC)cc3)nc3c2Cc2c(CO)cnc(C)c2O3)cc1	inactive: 0.246%	–
CCOc1ccc(CCNC(=O)CCc2cn(Cc3ccccc3F)c3ccccc23)cc1OCC	inactive: -13.5%	–
Cc1cccc(CNC(=O)c2cnc3c(-c4cccc(C)c4)c(C)nn3c2C)c1	inactive: -0.504%	–
CCCCC(=O)N1c2ccccc2C(C)(c2ccccc2)CC1(C)C (stereo not drawn)	inactive: -0.189%	–
COc1ccc(OC)c(CCNc2ncnc3onc(-c4ccc(Cl)cc4)c23)c1	inactive: -19.4%	–
Cn1c(=O)c2cc(S(=O)(=O)NC(Cc3ccccc3)C(=O)Nc3ccc(F)cc3)ccc2n(C)c1=O (stereo not drawn)	inactive: -2.03%	–
CC(=O)N1CCCc2cc(S(=O)(=O)N(C)CC(=O)Nc3cccc(Cl)c3C)ccc21	inactive: -0.231%	–

SMILES	activity change, negative = inhibition	Potency
CCc1ccc(S(=O)(=O)NCCc2cn3ccsc3n2)cc1	inactive: -17.3%	–
O=C(c1ccccc1Cl)n1nc(-c2ccco2)nc1NCc1cccs1	inactive: 1.05%	–
CCN(CC)c1ccc(NC(=O)COCc2cc(-c3ccc4c(c3)OCO4)on2)c(C)c1	inactive: -0.165%	–
Cc1ccccc1Cn1c2ccccc2c2cnn(CC(=O)NCc3cccc(Cl)c3)c(=O)c21	inactive: -3.08%	–
CCOC(=O)c1ccc(CN(Cc2ccc(F)cc2)S(=O)(=O)c2ccc(F)c(C(=O)Nc3cc(Cl)ccc3OC)c2)cc1	inactive: 7.28%	–
Cc1ccc(N2CCN(C(=O)c3c(C)oc4ncn(C)c(=O)c34)CC2)c(C)c1	inactive: 0.387%	–
Cc1ccc(NC(=O)CSc2nc3c(oc4ccccc43)c(=O)n2Cc2ccco2)cc1F	inactive: 4.9%	–
Cc1nc(-n2nc(C)c(Cc3ccc(Cl)cc3)c2C)sc1C(=O)N1CCC(C)CC1	inactive: -0.327%	–
CC(=O)N1CCCc2cc(S(=O)(=O)N(C)CC(=O)Nc3ccc(C(C)C)cc3)ccc21	inactive: -8.58%	–
COc1ccc(CNC(=O)c2cc3c(=O)n(Cc4ccco4)ccc3nc2C)c(OC)c1	inactive: 0.4%	–
CC(C)c1ccc(OCC(=O)Nc2ccc(S(=O)(=O)Nc3ncccn3)cc2)cc1	inactive: 17%	–
Cn1cc(-c2cc3n(n2)CCC(=O)N3CCCC(=O)Nc2ccc(Cl)cc2)c2ccccc21	inactive: -3.15%	–
CC(C)OC(=O)c1c(NC(=O)c2cccc(C(F)(F)F)c2)sc2c1CCCC2	inactive: -13.2%	–
O=C1CC(c2ccccc2)Sc2ccccc2N1Cc1ccccc1F (stereo not drawn)	inactive: -0.7%	–
COc1ccc(NC(=O)Cn2ccn(-c3ccc(F)c(F)c3)c(=O)c2=O)cc1Cl	inactive: -1.57%	–
COc1cccc(CNC(=O)c2sc3nc[nH]c(=O)c3c2C)c1	inactive: 1.66%	–
COc1ccc(CNC(=O)CCC2N=C3c4ccccc4N=C(SCC(=O)NCCc4ccc(OC)c(OC)c4)N3C2=O)cc1 (stereo not drawn)	inactive: -1.62%	–
COc1ccccc1CNC(=O)C(=O)NCC(c1ccco1)S(=O)(=O)c1ccc(F)cc1 (stereo not drawn)	inactive: -0.151%	–
COc1ccc(C)c2sc(NC(=O)c3ccc(S(=O)(=O)N4CCOCC4)cc3)nc12	inactive: -0.609%	–
COc1cccc(N2CCN(C(=O)c3cnc4c(-c5ccc(F)cc5)c(C)nn4c3C)CC2)c1	inactive: -14.3%	–
COc1ccc(C(=O)Oc2c(Sc3ccccc3)c(C)nn2-c2ccccc2)c(OC)c1	inactive: 11%	–
Cc1cccc(C)c1OCCn1c(CCNC(=O)C2CCCCC2)nc2ccccc21	inactive: 2.5%	–
CCOc1ccc(NC(=O)c2cc(-c3ccc(C)c(F)c3)on2)c([N+](=O)[O-])c1	inactive: -6.25%	–
COc1ccc(C2Nc3ccccc3-c3cc(C)nn32)c(OC)c1 (stereo not drawn)	inactive: -2.51%	–

SMILES	activity change, negative = inhibition	Potency
COC(=O)c1ccccc1NS(=O)(=O)c1cc2c3c(c1)CC(=O)N3CCC2	inactive: 2.21%	–
CCN(CC)S(=O)(=O)c1ccc2c(c1)N(CC(=O)Nc1ccc(Cl)cc1)C(=O)C1CCCN21 (stereo not drawn)	inactive: -1.23%	–
CC(C)(C)c1ccc(C(=O)NCC(c2ccco2)S(=O)(=O)c2ccccc2)cc1 (stereo not drawn)	inactive: 2.19%	–
COc1ccc(-c2nc3ccccc3n2Cc2ccccc2)cc1	inactive: 1.54%	–
CCCCCOc1ccc(NC(=O)Cn2c(-c3nonc3N)nc3ccccc32)cc1	inactive: -3.38%	–
Cc1c(Cl)ccc2sc(N3CCN(C(=O)CCS(=O)(=O)c4ccc(F)cc4)CC3)nc12	inactive: -18.5%	–
COc1cccc(C(=O)Nc2nc(-c3nnn(-c4ccccc4C(F)(F)F)c3C)ns2)c1	inactive: 8.26%	–
CCOc1ccc2nc(N(Cc3cccnc3)C(=O)c3cccs3)sc2c1	inactive: -5.41%	–
COc1cccc(-c2nc(Cn3c(=O)cc(C)c4c(C)nn(-c5ccccc5)c43)c(C)o2)c1OC	inactive: 0.342%	–
CC1=C(C(=O)Nc2ccccc2)C(c2ccccn2)n2nc(SCc3ccccc3)nc2N1 (stereo not drawn)	inactive: 5.63%	–
Cc1ccc2c(c1)C(c1ccccc1)N(C(=O)COc1ccc(Cl)cc1Cl)CC(=O)N2 (stereo not drawn)	inactive: 0%	–
Cc1ccc(-n2nc(C)c3c(C(=O)Nc4ccccc4C(F)(F)F)cc(C)nc32)cc1	inactive: 6.16%	–
CCCCN1C(=O)C(O)(CC(=O)c2ccc(CC)cc2)c2cc(Br)ccc21 (stereo not drawn)	–	active: 16.5 µM
CCCN(C(=O)c1cc2c(=O)oc3ccc(C)cc3c2s1)c1ccc(OCC)cc1	inactive: -1.29%	–
COc1cccc(CNC(=O)Cn2nc(C)n3c(cc4cc(C)ccc43)c2=O)c1OC	inactive: -11.2%	–
CCSc1nc(-c2cccc(Cl)c2)nc2c1Cc1c(CO)cnc(C)c1O2	inactive: 1.69%	–
Cc1ccc(NC(=O)n2ncc3c(C)cccc32)c(C)c1	inactive: 3.11%	–
O=C(CSc1nnc2scc(-c3ccc(Cl)cc3)n12)Nc1ccc(F)cc1	inactive: -5.93%	–
COc1ccccc1C(=O)NC1(C(F)(F)F)NC(=O)N(CCc2ccccc2)C1=O (stereo not drawn)	inactive: -4.81%	–
CCc1nn(CC(=O)N2CCN(c3cccc(C)c3)C(C)C2)c(=O)c2cc3sccc3n12 (stereo not drawn)	inactive: -3.51%	–
CCOCCCNC(=O)C(c1ccc(C)cc1)N(Cc1ccc2c(c1)OCO2)C(=O)c1ccccc1O (stereo not drawn)	inactive: 0.116%	–
